Data reported in PMC6900184, “The Escherichia coli MarA protein regulates the ycgZ‐ymgABC operon to inhibit biofilm formation”.
Results are given in words; binding and its absence hold for the method and conditions named. For some assays here: In cells and extracts the contact can be indirect. Some entries that bind do so weakly or less than the wild type. For some assays here: Where a sequence is shown, tags or fusion partners need not be part of it. Each block holds one molecule with its values, some of them ahead of it.

By UniProt entry, the sequences of proteins in these tests, tags left out.
UniProt P75993: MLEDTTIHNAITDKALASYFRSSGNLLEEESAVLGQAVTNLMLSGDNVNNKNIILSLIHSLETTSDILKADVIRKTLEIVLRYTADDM

How the values were obtained:
[1] = target: T1, YmgA (Escherichia coli) (UniProt P75992); experiment: two-hybrid; BacterioMatch II bacterial two-hybrid; fusions to lambda cI (pBT) and to RNAP alpha-NTD (pTRG) in a histidine auxotrophic E. coli XL1-Blue MRF' derivative; growth on selective medium with 3-AT, 24 h at 37°C and a further 48 h at 28°C; five independent cotransformants patched
T1 sequence: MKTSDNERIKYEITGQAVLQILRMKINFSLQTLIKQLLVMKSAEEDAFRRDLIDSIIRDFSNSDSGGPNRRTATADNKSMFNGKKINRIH

[2] = target: T2, YcgZ (Escherichia coli) (UniProt P75991); experiment: as above
T2 sequence: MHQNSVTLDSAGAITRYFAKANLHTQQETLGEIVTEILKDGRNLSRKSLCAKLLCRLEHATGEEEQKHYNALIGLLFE

[3] = target: T3, His6-RcsB (Escherichia coli) (UniProt P0DMC7); experiment: pull-down; in vivo coelution; His6-tagged bait co-expressed in E. coli MC4100 with the prey, lysate in 50 mM NaH2PO4, 150 mM NaCl, 20 mM imidazole, pH 8, Ni-NTA agarose, elution with 250 mM imidazole; prey detected by immunoblot (anti-FLAG or anti-Strep-Tactin antibody)
T3 sequence: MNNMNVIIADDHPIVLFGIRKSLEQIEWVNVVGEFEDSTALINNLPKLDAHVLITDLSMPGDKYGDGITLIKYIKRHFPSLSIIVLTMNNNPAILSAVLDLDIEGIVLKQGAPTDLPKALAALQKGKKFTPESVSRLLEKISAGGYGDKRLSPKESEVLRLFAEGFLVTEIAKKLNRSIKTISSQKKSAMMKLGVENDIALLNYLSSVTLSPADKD

[4] = target: T4, His6-YmgA (Escherichia coli) (UniProt P75992); experiment: as above
T4 sequence: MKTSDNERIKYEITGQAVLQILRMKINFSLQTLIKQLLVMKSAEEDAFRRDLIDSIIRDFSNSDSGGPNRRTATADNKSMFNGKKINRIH

[5] = target: YmgB-Strep (Escherichia coli) (UniProt P75993); experiment: pull-down; in vivo coelution; YmgB-Strep expressed in E. coli MC4100 ymgA::Flag, lysate in 100 mM Tris-HCl pH 8, 150 mM NaCl, 1 mM EDTA, Strep-Tactin Sepharose, elution with buffer E; prey detected by anti-FLAG immunoblot
[6] = target: YmgB (Escherichia coli) (UniProt P75993); experiment: two-hybrid; BacterioMatch II bacterial two-hybrid; fusions to lambda cI (pBT) and to RNAP alpha-NTD (pTRG) in a histidine auxotrophic E. coli XL1-Blue MRF' derivative; growth on selective medium with 3-AT, 24 h at 37°C and a further 48 h at 28°C; five independent cotransformants patched
[7] = target: T5, YmgC (Escherichia coli) (UniProt P75994); experiment: as above
T5 sequence: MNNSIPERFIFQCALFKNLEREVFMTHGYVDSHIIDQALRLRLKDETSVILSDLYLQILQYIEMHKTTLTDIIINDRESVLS

binding [1]: binds
binding [2]: binds
Molecule: YmgB (from UniProt P75993 1-88)

binding [3]: no binding
Molecule: YmgB-Strep (from UniProt P75993 1-88)

binding [4]: binds
B1: YcgZ-Flag (protein, UniProt P75991 1-78)
chain: MHQNSVTLDSAGAITRYFAKANLHTQQETLGEIVTEILKDGRNLSRKSLCAKLLCRLEHATGEEEQKHYNALIGLLFE

binding [2]: binds
B2: YmgA (protein, UniProt P75992 1-90)
chain: MKTSDNERIKYEITGQAVLQILRMKINFSLQTLIKQLLVMKSAEEDAFRRDLIDSIIRDFSNSDSGGPNRRTATADNKSMFNGKKINRIH

binding [5]: binds
B3: YmgA-FLAG (protein, UniProt P75992 1-90)
chain: MKTSDNERIKYEITGQAVLQILRMKINFSLQTLIKQLLVMKSAEEDAFRRDLIDSIIRDFSNSDSGGPNRRTATADNKSMFNGKKINRIH

binding [6]: binds
binding [7]: binds
B4: RcsC histidine kinase domain (domain or fragment, UniProt P0DMC5 476-692)
chain: TVSHELRTPLYGIIGNLDLLQTKELPKGVDRLVTAMNNSSSLLLKIISDILDFSKIESEQLKIEPREFSPREVMNHITANYLPLVVRKQLGLYCFIEPDVPVALNGDPMRLQQVISNLLSNAIKFTDTGCIVLHVRADGDYLSIRVRDTGVGIPAKEVVRLFDPFFQVGTGVQRNFQGTGLGLAICEKLISMMDGDISVDSEPGMGSQFTVRIPLYG
